Some of the results follow.
Assays:
Assay in all cases: glycan array binding signal (z-score within array); higher = stronger binding
Settings in all cases: glycan notation: IUPAC condensed, linker removed
[1] = target: Gal(b1-4)GlcNAc(b1-2)Man(a1-6)[GlcNAc(b1-2)Man(a1-3)]Man(b1-4)GlcNAc(b1-4)GlcNAc
In short: (§1)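 Negative Z-scores can be read as non-binding. The Z-score is calculated within each array and then averaged across arrays of one protein sequence at different concentrations or buffers and across linkers. Arrays, 3228 in all, were curated from the Consortium for Functional Glycomics database and kept only where the protein sequence was available.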

[2] = target: Gal(b1-4)GlcNAc(b1-2)Man(a1-6)[Man(a1-3)]Man(b1-4)GlcNAc(b1-4)GlcNAc
In short: as §1

[3] = target: Gal(b1-4)GlcNAc(b1-2)[Gal(b1-4)GlcNAc(b1-4)]Man(a1-3)[Gal(b1-4)GlcNAc(b1-2)Man(a1-6)]Man(b1-4)GlcNAc(b1-4)GlcNAc
In short: as §1

[4] = target: Gal(b1-4)GlcNAc(b1-2)[Gal(b1-4)GlcNAc(b1-4)]Man(a1-3)[Gal(b1-4)GlcNAc(b1-2)[Gal(b1-4)GlcNAc(b1-6)]Man(a1-6)]Man(b1-4)GlcNAc(b1-4)GlcNAc
In short: as §1

[5] = target: Gal(b1-4)GlcNAc(b1-2)[Gal(b1-4)GlcNAc(b1-4)]Man(a1-3)[GlcNAc(b1-4)][Gal(b1-4)GlcNAc(b1-2)Man(a1-6)]Man(b1-4)GlcNAc(b1-4)GlcNAc
In short: as §1

[6] = target: Gal(b1-4)GlcNAc(b1-2)[Gal(b1-4)GlcNAc(b1-4)]Man(a1-3)[GlcNAc(b1-4)][Gal(b1-4)GlcNAc(b1-2)[Gal(b1-4)GlcNAc(b1-6)]Man(a1-6)]Man(b1-4)GlcNAc(b1-4)GlcNAc
In short: as §1

[7] = target: Gal(b1-4)GlcNAc(b1-2)[Gal(b1-4)GlcNAc(b1-6)]Man(a1-6)[Gal(b1-4)GlcNAc(b1-2)Man(a1-3)]Man(b1-4)GlcNAc(b1-4)GlcNAc
In short: as §1

[8] = target: Gal(b1-4)GlcNAc(b1-2)[Gal(b1-4)GlcNAc(b1-6)]Man(a1-6)[Gal(b1-4)GlcNAc(b1-2)Man(a1-3)]Man(b1-4)GlcNAc(b1-4)[Fuc(a1-6)]GlcNAc
In short: as §1

[9] = target: Gal(b1-4)GlcNAc(b1-2)[Gal(b1-4)GlcNAc(b1-6)]Man(a1-6)[GlcNAc(b1-4)][Gal(b1-4)GlcNAc(b1-2)Man(a1-3)]Man(b1-4)GlcNAc(b1-4)GlcNAc
In short: as §1

[10] = target: Gal(b1-4)GlcNAc(b1-2)[Gal(b1-4)GlcNAc(b1-6)]Man(a1-6)[GlcNAc(b1-4)][Gal(b1-4)GlcNAc(b1-2)[Gal(b1-4)GlcNAc(b1-4)]Man(a1-3)]Man(b1-4)GlcNAc(b1-4)[Fuc(a1-6)]GlcNAc
In short: as §1

[11] = target: Gal(b1-4)GlcNAc(b1-3)Gal(b1-3)GalNAc
In short: as §1

[12] = target: Gal(b1-4)GlcNAc(b1-3)Gal(b1-3)GlcNAc
In short: as §1

[13] = target: Gal(b1-4)GlcNAc(b1-3)Gal(b1-4)Glc
In short: as §1

[14] = target: Gal(b1-4)GlcNAc(b1-3)Gal(b1-4)GlcNAc
In short: as §1

[15] = target: Gal(b1-4)GlcNAc(b1-3)Gal(b1-4)GlcNAc(b1-2)Man(a1-3)[Gal(b1-4)GlcNAc(b1-3)Gal(b1-4)GlcNAc(b1-2)Man(a1-6)]Man(b1-4)GlcNAc(b1-4)GlcNAc
In short: as §1

[16] = target: Gal(b1-4)GlcNAc(b1-3)Gal(b1-4)GlcNAc(b1-2)Man(a1-3)[Gal(b1-4)GlcNAc(b1-3)Gal(b1-4)GlcNAc(b1-2)Man(a1-6)]Man(b1-4)GlcNAc(b1-4)[Fuc(a1-6)]GlcNAc
In short: as §1

[17] = target: Gal(b1-4)GlcNAc(b1-3)Gal(b1-4)GlcNAc(b1-2)[Gal(b1-4)GlcNAc(b1-3)Gal(b1-4)GlcNAc(b1-6)]Man(a1-6)[Gal(b1-4)GlcNAc(b1-3)Gal(b1-4)GlcNAc(b1-2)Man(a1-3)]Man(b1-4)GlcNAc(b1-4)GlcNAc
In short: as §1

[18] = target: Gal(b1-4)GlcNAc(b1-3)Gal(b1-4)GlcNAc(b1-2)[Gal(b1-4)GlcNAc(b1-3)Gal(b1-4)GlcNAc(b1-6)]Man(a1-6)[Gal(b1-4)GlcNAc(b1-3)Gal(b1-4)GlcNAc(b1-2)Man(a1-3)]Man(b1-4)GlcNAc(b1-4)[Fuc(a1-6)]GlcNAc
In short: as §1

[19] = target: Gal(b1-4)GlcNAc(b1-3)Gal(b1-4)GlcNAc(b1-3)Gal(b1-4)GlcNAc
In short: as §1

[20] = target: Gal(b1-4)GlcNAc(b1-3)Gal(b1-4)GlcNAc(b1-3)Gal(b1-4)GlcNAc(b1-2)Man(a1-3)[Gal(b1-4)GlcNAc(b1-3)Gal(b1-4)GlcNAc(b1-3)Gal(b1-4)GlcNAc(b1-2)Man(a1-6)]Man(b1-4)GlcNAc(b1-4)GlcNAc
In short: as §1

[21] = target: Gal(b1-4)GlcNAc(b1-3)Gal(b1-4)GlcNAc(b1-3)Gal(b1-4)GlcNAc(b1-2)Man(a1-3)[Gal(b1-4)GlcNAc(b1-3)Gal(b1-4)GlcNAc(b1-3)Gal(b1-4)GlcNAc(b1-2)Man(a1-6)]Man(b1-4)GlcNAc(b1-4)[Fuc(a1-6)]GlcNAc
In short: as §1

[22] = target: Gal(b1-4)GlcNAc(b1-3)Gal(b1-4)GlcNAc(b1-3)Gal(b1-4)GlcNAc(b1-2)[Gal(b1-4)GlcNAc(b1-3)Gal(b1-4)GlcNAc(b1-3)Gal(b1-4)GlcNAc(b1-6)]Man(a1-6)[Gal(b1-4)GlcNAc(b1-3)Gal(b1-4)GlcNAc(b1-3)Gal(b1-4)GlcNAc(b1-2)Man(a1-3)]Man(b1-4)GlcNAc(b1-4)[Fuc(a1-6)]GlcNAc
In short: as §1

B1: Clec2 (Mus musculus), Q9JL99 (protein)
chain: MQDEDGYITLNIKPRKQALSSAEPASSWWRVMALVLLISSMGLVVGLVALGIMSVTQQKYLLAEKENLSATLQQLAKKFCQELIRQSEIKTKSTFEHKCSPCATKWRYHGDSCYGFFRRNLTWEESKQYCTEQNATLVKTASQSTLDYIAERITSVRWIGLSRQNSKKDWMWEDSSVLRKNGINLSGNTEENMNCAYLHNGKIHPASCKERHYLICERNAGMTRVDQLL
glycan array binding signal (z-score) [1]: 1.09 | glycan array binding signal (z-score) [2]: -0.136 | glycan array binding signal (z-score) [3]: -0.86 | glycan array binding signal (z-score) [4]: -0.864 | glycan array binding signal (z-score) [5]: 0.396 | glycan array binding signal (z-score) [6]: 0.075 | glycan array binding signal (z-score) [7]: 0.254 | glycan array binding signal (z-score) [8]: -0.584 | glycan array binding signal (z-score) [9]: -0.038 | glycan array binding signal (z-score) [10]: -0.64 | glycan array binding signal (z-score) [11]: -0.751 | glycan array binding signal (z-score) [12]: -0.672 | glycan array binding signal (z-score) [13]: -0.394 | glycan array binding signal (z-score) [14]: -0.97 | glycan array binding signal (z-score) [15]: 1.8 | glycan array binding signal (z-score) [16]: -0.369 | glycan array binding signal (z-score) [17]: 2.46 | glycan array binding signal (z-score) [18]: -0.429 | glycan array binding signal (z-score) [19]: -0.357 | glycan array binding signal (z-score) [20]: -0.018 | glycan array binding signal (z-score) [21]: -0.371 | glycan array binding signal (z-score) [22]: -0.517
